Among all 330,000 compounds or so, about 300 (0.091%) were called active. This list was built around the results that the source calls inconclusive (neither active nor inactive); the mix of calls is not that of the screen. The call rests on the fitted dose curve; in most records, active means well fitted inhibition curve with a large enough effect; inconclusive means small, poorly fitted or top-dose-only effect, or effect the other way, or another doubt; inactive means no such curve, though single readings can be large or run the other way. No potency is given beside an inconclusive call; the fits are too rough.
target: Lysosomal acid glucosylceramidase (Homo sapiens) (UniProt P04062); test: qHTS Assay for Inhibitors and Activators of N370S glucocerebrosidase as a Potential Chaperone Treatment of Gaucher Disease; conditions: N370S GC spleen homogenate, 4MU-glucoside fluorescence; activity change, negative = inhibition: at 59.4 µM (top of the series) unless noted;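 on activity change, negative = inhibition: 0% = full enzyme activity and -100% = no enzyme basal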
Potency means the concentration at half of the fitted maximal effect.

**Q.** How did the Potency turn out when `COC(=O)C1=CN(C2CC2)C=C(C(=O)OC)C1c1ccccc1OC` was run?
**A.** The Potency was inconclusive [activator, partial curve].

**Q.** How did the Potency turn out when `CC1(C)CC(=O)C=C(Nc2ccc(C(=O)O)c(O)c2)C1` was run?
**A.** The Potency was “inactive”.

**Q.** For `O=C1CCCc2c1cc(C(=O)Nc1ccc(Cl)cn1)c(=O)n2-c1ccccc1`, which Potency is on record?
**A.** Its Potency is inconclusive [activator, partial curve].

**Q.** `COc1cccc(NC(=O)CN(c2cccc(C(F)(F)F)c2)S(C)(=O)=O)c1` was tested. Which Potency did it give?
**A.** The Potency was inconclusive [inhibitor, single point].

**Q.** Which Potency does the source give for `O=C1Nc2ccccc2O/C1=C\c1c(F)cccc1Cl` here?
**A.** Its Potency is inconclusive [activator, full curve].

**Q.** Which Potency does the source give for `O=C(COc1ccc2cc(-c3ccccc3)c(=O)oc2c1)NCC1CCC(C(=O)O)CC1` (stereo not drawn) here?
**A.** The Potency was inconclusive [activator, partial curve].

**Q.** For `NCCCC[C@H](NC(=O)[C@H](CS)NC(=O)[C@@H](N)Cc1cnc[nH]1)C(=O)N[C@@H](Cc1ccccc1)C(=O)N[C@@H](Cc1c[nH]c2ccccc12)C(=O)N[C@@H](Cc1c[nH]c2ccccc12)C(=O)O`, which Potency is on record?
**A.** The Potency was “inactive”.

**Q.** `COc1ccc(C(=O)NC(=S)N2CCCc3ccccc32)cc1OC` was tested. Which Potency did it give?
**A.** The Potency was inconclusive [inhibitor, single point].

**Q.** For `Cc1ccc(Cn2ccc(NC(=O)c3cc(-c4ccc(F)cc4)on3)n2)cc1`, which Potency is on record?
**A.** Its Potency is inconclusive [inhibitor, full curve, poor fit].

**Q.** How did the Potency turn out when `COc1cccc2[nH]c3ccccc3c(=O)c12` was run?
**A.** Its Potency is inconclusive [activator, partial curve].

**Q.** With `Cc1cc(OCC(=O)NCCN2CCOCC2)c2c(C)c(C)c(=O)oc2c1` as the compound, how does the Potency read?
**A.** The Potency was inconclusive [inhibitor, single point].

**Q.** How did the Potency turn out when `O=C(O)C1CC(=O)N(Cc2cccs2)C1` (stereo not drawn) was run?
**A.** The Potency was inconclusive [inhibitor, single point].

**Q.** For `Cc1cc(C)nc(N/C(=N\S(=O)(=O)Cc2ccccc2)Nc2ccccc2Br)n1`, which Potency is on record?
**A.** The Potency was inconclusive [activator, single point].

**Q.** Which Potency does the source give for `Cn1c(=O)c2c(nc(N/N=C/c3ccco3)n2C)n(C)c1=O` here?
**A.** Its Potency is “inactive”.

**Q.** With `CCOC(=O)c1cc2oc(C(c3nnnn3C3CCCCC3)N3CCOCC3)cc2[nH]1` (stereo not drawn) as the compound, how does the Potency read?
**A.** The Potency was active: 12.6 µM.

**Q.** For `COc1ccc(N(CC(=O)NCCc2ccc(OC)c(OC)c2)S(=O)(=O)c2ccc(OC)c(OC)c2)cc1`, which Potency is on record?
**A.** The Potency was “inactive”.

**Q.** With `CC(=O)c1ccc(Oc2cc(C)nc(-n3nc(C)cc3C)n2)cc1` as the compound, how does the Potency read?
**A.** Its Potency is inconclusive [inhibitor, single point].

**Q.** How did the Potency turn out when `C[C@H]1C(c2cccc(Cl)c2)=NN(c2ccccc2)[C@@H]1CO` was run?
**A.** Its Potency is inconclusive [activator, partial curve].

**Q.** `COC(=O)c1cc(-c2ccc(Br)cc2)on1` was tested. Which Potency did it give?
**A.** The Potency was “inactive”.

**Q.** Which Potency does the source give for `CC12CCC(C)(c3nc4ccccc4nc31)C2(C)C` here?
**A.** The Potency was “inactive”.

**Q.** `CCc1cc(C(=O)Nc2cc(S(=O)(=O)N(CC)CC)ccc2N2CCOCC2)sc1C` was tested. Which Potency did it give?
**A.** Its Potency is inconclusive [activator, partial curve].

**Q.** How did the Potency turn out when `COc1ccccc1Oc1ccc(S(=O)(=O)N2CCOCC2)cc1S(=O)(=O)N1CCOCC1` was run?
**A.** The Potency was “inactive”.

**Q.** `O=C1C(NS(=O)(=O)c2cccs2)=C(N2CCN(c3ccccc3)CC2)C(=O)c2ccccc21` was tested. Which activity change, negative = inhibition did it give?
**A.** Its activity change, negative = inhibition is inconclusive: 28.2% [activator].

**Q.** `COC(=O)c1cc2c(=O)n3ccccc3nc2n(C)c1=N` was tested. Which Potency did it give?
**A.** The Potency was inconclusive [activator, single point].

**Q.** Which Potency does the source give for `CCn1c(CN2c3ccccc3Sc3ccccc32)n[nH]c1=S` here?
**A.** Its Potency is inconclusive [activator, single point].

**Q.** For `CC1(C)Cc2cccc(OCC(=O)N3CCN(c4cccc(Cl)c4)CC3)c2O1`, which Potency is on record?
**A.** Its Potency is “inactive”.

**Q.** Which Potency does the source give for `O=C(Cc1cccs1)NCc1cccc(CNC(=O)Cc2cccs2)c1` here?
**A.** The Potency was “inactive”.

**Q.** How did the Potency turn out when `CCn1c(COc2ccc3ccccc3c2C)nnc1SCC(=O)Nc1cccc(C(=O)O)c1` was run?
**A.** Its Potency is inconclusive [inhibitor, partial curve].

**Q.** `NC(N)=N/N=C/c1ccc(OCc2ccc(Cl)cc2Cl)cc1` was tested. Which Potency did it give?
**A.** The Potency was inconclusive [inhibitor, partial curve].

**Q.** How did the Potency turn out when `Cc1ccccc1C(=O)N=c1c(C#N)cc2c(=O)n3cccc(C)c3nc2n1Cc1ccco1` was run?
**A.** The Potency was inconclusive [activator, single point].

**Q.** `COc1ccccc1CNC(=O)c1ccc(NS(=O)(=O)c2cccs2)cc1` was tested. Which Potency did it give?
**A.** Its Potency is inconclusive [activator, single point].

**Q.** For `Cc1cc(-c2ccccc2)nc2cc(C(=O)N(Cc3ccccc3)Cc3ccccc3)nn12`, which Potency is on record?
**A.** Its Potency is inconclusive [activator, partial curve].

**Q.** For `S=C(NCc1ccc2c(c1)OCO2)NC1CCN(Cc2ccccc2)CC1`, which Potency is on record?
**A.** The Potency was inconclusive [inhibitor, full curve, poor fit].

**Q.** `N=c1c2c(ncn1Cc1ccco1)Oc1cc(O)ccc1C2c1ccccc1` (stereo not drawn) was tested. Which Potency did it give?
**A.** Its Potency is “inactive”.

**Q.** How did the Potency turn out when `CC(C)(C)c1ccc(/C=C/C(=O)N2CCCCC2)cc1` was run?
**A.** Its Potency is “inactive”.

**Q.** How did the Potency turn out when `N#Cc1c2n(c(=S)n(-c3ccccc3[N+](=O)[O-])c1=O)CCCCC2` was run?
**A.** Its Potency is inconclusive [activator, partial curve].

**Q.** Which Potency does the source give for `COc1ccc(C(=O)/C=C/C(=O)N(CC(=O)NC2CCCCC2)Cc2cccs2)c(O)c1` here?
**A.** Its Potency is “inactive”.

**Q.** With `COC(=O)COc1ccc(C2Nc3c(Cl)ccc(C(=O)O)c3C3C=CCC32)cc1` (stereo not drawn) as the compound, how does the Potency read?
**A.** Its Potency is “inactive”.

**Q.** `CCOC(=O)Cn1c(=O)c(-c2cc(Br)ccc2N)nc2ccccc21` was tested. Which Potency did it give?
**A.** The Potency was “inactive”.

**Q.** Which Potency does the source give for `Cc1ccccc1C(=O)N(Cc1nc2ccccc2c(=O)[nH]1)C1CCCC1` here?
**A.** The Potency was inconclusive [activator, partial curve].

**Q.** With `Cc1ccc(SCC(=O)Nc2ccc(-c3nc4ccccc4[nH]3)cc2)cc1` as the compound, how does the Potency read?
**A.** Its Potency is “inactive”.

**Q.** How did the Potency turn out when `CC1CC[C@@]23CCC4(C)[C@@]5(C)CCC6C(C)(C)C(O)CC[C@@]6(C)C5C=C[C@@]4(OC2=O)C3C1C` (stereo partly drawn) was run?
**A.** Its Potency is “inactive”.

**Q.** For `COc1ccc(S(=O)(=O)N(C)C)cc1NS(=O)(=O)c1ccc(F)c(F)c1F`, which activity change, negative = inhibition is on record?
**A.** Its activity change, negative = inhibition is inconclusive: 35.7% [activator].

**Q.** With `CCCNc1ccc(C(=O)OCC)cc1[N+](=O)[O-]` as the compound, how does the Potency read?
**A.** The Potency was inconclusive [activator, single point].

**Q.** For `C[C@H](O)[C@H](O)[C@H]1CNc2nc(N)[nH]c(=O)c2N1`, which Potency is on record?
**A.** Its Potency is inconclusive [activator, partial curve].

**Q.** `CCN1CCN(C(=S)c2ccc(Cl)cc2)CC1` was tested. Which Potency did it give?
**A.** The Potency was “inactive”.

**Q.** With `COc1cc(OC)c2c(-c3ccccc3)cc(=O)oc2c1C(CCN1CCOCC1)c1ccc(N(C)C)cc1` (stereo not drawn) as the compound, how does the Potency read?
**A.** Its Potency is inconclusive [inhibitor, partial curve].

**Q.** How did the Potency turn out when `C=CCSc1nnc(-c2cc3c(s2)-c2ccccc2CC3)o1` was run?
**A.** The Potency was inconclusive [activator, partial curve].

**Q.** For `NS(=O)(=O)c1cc2c(cc1Cl)NC(C1C[C@H]3C=C[C@@H]1C3)NS2(=O)=O` (stereo partly drawn), which Potency is on record?
**A.** The Potency was inconclusive [inhibitor, full curve, poor fit].

**Q.** Which Potency does the source give for `CC(C)CCC(CCNCc1ccccn1)c1ccc(Cl)cc1` (stereo not drawn) here?
**A.** The Potency was inconclusive [inhibitor, partial curve].

**Q.** `COc1ccc2[nH]c(=O)c(CN(CCc3ccccc3)Cc3nnnn3CC3CCCO3)cc2c1` (stereo not drawn) was tested. Which Potency did it give?
**A.** The Potency was “inactive”.

**Q.** With `O=C(CCCCCn1c(=S)[nH]c2ccc(N3CCOCC3)cc2c1=O)NCc1cccc(Cl)c1` as the compound, how does the Potency read?
**A.** The Potency was inconclusive [inhibitor, single point].

**Q.** For `CCCn1c(SCc2ccccc2)nc2c1c(=O)[nH]c(=O)n2C`, which Potency is on record?
**A.** Its Potency is inconclusive [activator, partial curve].

**Q.** For `COc1ccccc1[C@H]1C(c2ccc(F)cc2)=NN(c2ccccc2)[C@@H]1CO`, which Potency is on record?
**A.** Its Potency is inconclusive [activator, partial curve].

**Q.** With `CC1CCCN(c2nc3ccsc3c(=O)s2)C1` (stereo not drawn) as the compound, how does the Potency read?
**A.** The Potency was inconclusive [activator, partial curve].

**Q.** For `CCCCn1c(=N)n(CC(O)COc2ccc(C)cc2)c2ccccc21` (stereo not drawn), which Potency is on record?
**A.** Its Potency is inconclusive [inhibitor, single point].

**Q.** For `O=C(N/N=C/c1ccc(O)c(O)c1)N/N=C/c1ccc(O)c(O)c1`, which Potency is on record?
**A.** The Potency was “inactive”.

**Q.** With `Cc1ccc(C(=O)Cn2c3c(sc2=N)CCCC3)cc1` as the compound, how does the Potency read?
**A.** The Potency was inconclusive [activator, partial curve].

**Q.** With `CCCOc1ccc(C(=O)c2nc3c(n2O)CCCCC3)cc1` as the compound, how does the Potency read?
**A.** Its Potency is inconclusive [activator, full curve, poor fit].

**Q.** `COc1cc2c(cc1NC(=O)c1cccc(S(=O)(=O)N(C)C)c1)oc1ccccc12` was tested. Which Potency did it give?
**A.** Its Potency is inconclusive [activator, partial curve].

**Q.** How did the Potency turn out when `c1ccc(Nc2nc(-c3ccc4c(c3)OCO4)nc3ccccc23)cc1` was run?
**A.** The Potency was inconclusive [inhibitor, partial curve, poor fit].

**Q.** `CN(CC(=O)Nc1nc2ccccc2s1)S(=O)(=O)c1ccc(Br)cc1` was tested. Which Potency did it give?
**A.** Its Potency is inconclusive [activator, partial curve].

**Q.** For `O=S(=O)(Nc1ccccc1N1CCCCC1)c1ccc(F)cc1`, which Potency is on record?
**A.** The Potency was inconclusive [activator, partial curve, poor fit].

**Q.** With `CCOC(=O)c1sc(NC(=O)CSc2nnnn2-c2ccccc2)nc1C` as the compound, how does the Potency read?
**A.** Its Potency is “inactive”.

**Q.** Which Potency does the source give for `COC(=O)c1sc(NC(=O)c2oc3ccccc3c2C)nc1C` here?
**A.** Its Potency is “inactive”.

**Q.** With `COc1cccc(Cn2c(=O)c(-c3cc(F)cc(F)c3)nc3cnc(N4CCNCC4)nc32)c1` as the compound, how does the Potency read?
**A.** The Potency was inconclusive [inhibitor, single point].

**Q.** For `CCN(CC)c1ccc(C(=O)OCC(=O)N2CCCC2)cc1`, which Potency is on record?
**A.** The Potency was “inactive”.

**Q.** `CCN(c1ccccc1)c1cc2ccccc2c(=O)[nH]1` was tested. Which Potency did it give?
**A.** The Potency was inconclusive [activator, single point].

From PubChem BioAssay AID2101 (National Center for Advancing Translational Sciences (NCATS), 2009)
